Among all 320,000 compounds or so, about 200 (0.062%) were called active. Inconclusive means that the source gave no clear call. Such entries were picked first, then a sample of the others. Calls come from the whole dose curve; as a rule, active = well fitted activation curve with a large enough effect; inconclusive = small, poorly fitted or top-dose-only effect; inactive = no such curve, though single readings can be large or run the other way. Potencies of inconclusive entries are left out as doubtful fits.
assay: qHTS assay for re-activators of p53 using a Luc reporter; conditions: H1299 p53-A138V BP100-luciferase reporter, luminescence, 24 h; series mostly up to 92.2 µM; note: nearly all actives have a fitted effect of over 45% in size
Outline: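 H1299 (p53-null), stable ts p53-A138V + BP100-Luc; 1000 cells/well, Opti-MEM/10% FBS; cpd 4 pt, 1:5; 24 h, 37 deg C, 5% CO2; detection reagent 10 min RT; luminescence.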
Potency is the fitted concentration of half-maximal effect; tags give direction and shape of the fitted curve.

SMILES	Potency
CN(C)c1ccc(C(=O)N2CC(=O)N(CCc3ccccc3)C(=O)C2)cc1	inconclusive [activator, single point]
Cc1ccc(/C=N/n2cnc3sc4c(c3c2=O)CCCC4)o1	inconclusive [activator, full curve, poor fit]
O=C(CC1SC(=Nc2ccccc2)N(Cc2ccccn2)C1=O)Nc1cccc(Cl)c1 (stereo not drawn)	inconclusive [activator, full curve, poor fit]
CCc1ccccc1NC1=NCC(=O)N1Cc1ccc(OC)cc1	inactive
O=C(NCc1ccco1)/C(=C/c1ccc(C(F)(F)F)cc1)c1nc2ccccc2[nH]1	inconclusive [activator, full curve]
O=C(Nc1ccccc1[N+](=O)[O-])c1cncc(Br)c1	inconclusive [activator, partial curve, poor fit]
Cc1cc(=O)n(CCc2ccccc2)c(O)c1C#N	inconclusive [activator, partial curve, poor fit]
CCC(C)(C)C1CCc2[nH]nc(C(=O)N/N=C(\C)c3ccco3)c2C1 (stereo not drawn)	inactive
CCC(C)C(NC(=O)OC(C)(C)C)C(=O)NC(CC(C)C)C(N)=O (stereo not drawn)	inconclusive [activator, single point]
COc1ccc(CC(=O)Nc2ccc(-c3cn4ccc(C)cc4n3)cc2)cc1	inconclusive [activator, partial curve, poor fit]
C=CCn1c(SCC(=O)Nc2ccccc2C)nc2sc(C)c(C)c2c1=O	inactive
CC(=O)c1sc(-c2ccccc2)cc1N	inactive
CCCCOc1ccc(-c2c(C(=O)Nc3ccccc3)c(C)[nH]c(=S)c2C#N)cc1	inactive
CSc1nc(=NC(C)=O)ss1	inconclusive [activator, single point]
CCCCn1c(-c2ccco2)n[nH]c1=S	inactive
O=C(NC1CCCCC1)N1CCc2ccccc21	inconclusive [activator, partial curve, poor fit]
COc1cccc(CNC(=O)Cn2cccc2C(=O)c2ccccc2C)c1	inconclusive [activator, single point]
CC1(C)Cc2ccccc2/C(=C/C(=O)N2CCCCCC2)N1	inconclusive [activator, single point]
O=C(Nc1ccc(F)cc1F)c1cc(-c2ccco2)on1	inconclusive [activator, single point]
Cc1ccc(NC(=O)CN(C)C(=O)c2cccc(-n3cccc3)c2)cc1	inactive
CC(=O)Nc1ccc(OC(=O)c2cc3ccccc3oc2=O)cc1	inconclusive [activator, partial curve, poor fit]
CCc1cccc(C)c1NC(=S)NCc1ccc2[nH]c(C)cc2c1	inactive

SMILES	Potency
CC1CN(S(=O)(=O)c2cc(C(=O)NCCC3=CCCCC3)ccc2Cl)CC(C)O1 (stereo not drawn)	inconclusive [activator, partial curve, poor fit]
OC12CC3C[C@H](C1)C(N1CCOCC1)[C@@H](C3)C2 (stereo partly drawn)	inconclusive [activator, single point]
O=C(c1ccccc1)N1N=C(c2ccccc2)CC1c1ccccc1[N+](=O)[O-] (stereo not drawn)	inactive
CCN(CC)CCCNC(=S)N(CCCO)Cc1cc2cc3c(cc2[nH]c1=O)OCO3	inconclusive [activator, single point]
CCCN1CCN(C(c2cc3cc4c(cc3[nH]c2=O)OCO4)c2nnnn2C(C)(C)C)CC1 (stereo not drawn)	inconclusive [activator, single point]
Nc1nnc(-c2ccc(Cl)cc2Cl)s1	inactive
O=C1C(Cc2c[nH]c3ccccc23)NC(=S)N1Cc1ccccc1 (stereo not drawn)	inactive
CN(O)/C=c1/ccc2c(n1)C(=O)C=CC=2	inconclusive [activator, single point]
O=c1cc(-c2ccc(O)c(O)c2)oc2cc(O[C@@H]3O[C@H](CO)[C@@H](O)[C@H](O)[C@H]3O)cc(O)c12	inconclusive [activator, partial curve, poor fit]
Cc1ccc(/C=C2/SC(=S)N(CCC(=O)N3CCN(C)CC3)C2=O)cc1	inconclusive [activator, partial curve, poor fit]
O=C(Cn1nnc(-c2ccccc2-n2cnnn2)n1)c1ccccc1	inconclusive [activator, single point]
C/C(=N/NC(=O)c1ccco1)c1cccc(NC(=O)c2ccc(C)s2)c1	inactive
Cc1ccc2nc(-c3ccc(NC(=S)NC(=O)C(C)C)cc3)sc2c1	inconclusive [activator, partial curve, poor fit]
O=C(Nc1ccc(C(=O)Oc2ccccc2)c(O)c1)c1ccco1	inconclusive [activator, partial curve, poor fit]
COc1ccc(N(C(=O)c2ccncc2)S(=O)(=O)c2cccc([N+](=O)[O-])c2)cc1	inconclusive [activator, single point]
CNc1nc(-c2ccc3c(c2)CCN3C(=O)c2cccc(F)c2)cs1	inconclusive [activator, full curve, poor fit]
CCOC(=O)c1ccc(S(=O)(=O)N2CC(=O)Nc3ccccc32)cc1	inconclusive [activator, single point]
N/C(=N\c1nc2ccccc2o1)NC(=O)c1ccccc1	inconclusive [activator, partial curve, poor fit]
CC(=O)Nc1nc(-c2ccc3ccccc3c2)cs1	inconclusive [activator, partial curve, poor fit]
Cn1c(SCC(=O)NCC2CCCO2)ncc(C(=O)Nc2ccc(Cl)cc2)c1=O (stereo not drawn)	inconclusive [activator, full curve, poor fit]
COc1ccc(C(C(=O)NCc2ccccc2)N(C(=O)c2snc(C(N)=O)c2N)C2CCCC2)cc1 (stereo not drawn)	inactive
